Here are results for two molecules from PMC6134095 (2018).

Holding throughout (experiment): SPR
A general note: SPR reads the build-up and loss of mass on a sensor chip optically.

The target in assay [1] is T1, FtsB R72A (E. coli, UniProt P0A6S5 22-103, R72A).
The target in assay [2] is T2, FtsB F84A (E. coli, UniProt P0A6S5 22-103, F84A).
In assay [3] the target is T1, FtsB R72A. This is another data set of the same source.
Assay [4] addresses T2, FtsB F84A. This is another data set of the same source.
Assay [5] addresses T3, FtsL (58–121), periplasmic domain of E. coli FtsL (E. coli, UniProt P0AEN4 58-121).
T3 chain: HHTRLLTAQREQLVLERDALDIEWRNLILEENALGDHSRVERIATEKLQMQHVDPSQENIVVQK

B1: FtsQ ([…]), periplasmic domain of E. coli FtsQ (domain or fragment)
chain: not shown
What is called Kd is the concentration at which binding is half-saturated. Read a high Kd as a looser complex. What is called koff is the rate constant with which the complex falls apart. A low value points to slow dissociation. As to B1, the dissociation constant Kd in assay [1] turned out to be 26 µM; in assay [2], 38 µM. Further, the off-rate constant (koff) is 0.015 s⁻¹ in assay [3] and 0.014 s⁻¹ in assay [4].

B2: FtsQ ([…]) and FtsB ([…]) added together (complex)
chain 1: [about 200 residues cut from this listing]
chain 2: GKNGIHDYTRVNDDVAAQQATNAKLKARNDQLFAEIDDLNGGQEALEERARNELSMTRPGETFYRLVPDASKRAQSAGQNNR
As for B2, the koff in assay [5] was 0.045 s⁻¹.
